Laboratory results: the supplement of paper PMC10670038
Counter-ions that a name gives are not always drawn. ± gives the standard deviation of the averaged measurements. In all, about 2,000 compounds were measured (“relative cell viability vs DMSO, compound alone”: median about 1.1, lowest 2% from about 0.29 on). Some of the results follow.

The compounds below were run on TE10 (assay: relative cell viability vs DMSO, compound alone (fraction); TE10 is an esophageal squamous carcinoma line; higher = less cytotoxic). Conditions: 2 µM; 48 h.
Protocol: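 TE10 ESCC cells (1,000/well, 384-well plates) were treated with Selleck bioactive library compounds at 2 uM alone for 48 h. Viability was read by CellTiter-Glo and expressed relative to DMSO wells. Two technical replicates (A, B).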

**Q.** With `C[C@H]1Oc2cc(cnc2N)-c2c(nn(C)c2C#N)CN(C)C(=O)c2ccc(F)cc21` as the compound, how does the relative cell viability read?
**A.** The relative cell viability was 0.94 ± 0.044.

**Q.** For `C[C@@]1(c2cc(-c3cncnc3)c(F)cc2F)CCSC(N)=N1`, which relative cell viability is on record?
**A.** The relative cell viability was 0.991 ± 0.023.

**Q.** `CC(=O)SCC(Cc1ccccc1)C(=O)NCC(=O)OCc1ccccc1` (centres undefined) [Racecadotril] was tested. Which relative cell viability did it give?
**A.** The relative cell viability was 1.16 ± 0.13.

**Q.** How did the relative cell viability turn out when `C[C@H](CCC(=O)O)[C@H]1CC[C@H]2[C@@H]3CC[C@@H]4C[C@H](O)CC[C@]4(C)[C@H]3CC[C@]12C` [Lithocholic acid] was run?
**A.** The relative cell viability was 1.13 ± 0.015.

**Q.** For `Cn1c(Nc2ccc(C(F)(F)F)cc2)nc2cc(Oc3ccnc(-c4ncc(C(F)(F)F)[nH]4)c3)ccc21`, which relative cell viability is on record?
**A.** The relative cell viability was 0.792 ± 0.036.

**Q.** With `O=C(NO)c1ccc(CC(=O)N(CCO)c2ccccc2)cc1` as the compound, how does the relative cell viability read?
**A.** Its relative cell viability is 1.02 ± 0.028.

**Q.** `COC(=O)C1=C(C)NC(C)=C(C(=O)OC(C)C)C1c1cccc2nonc12` (centres undefined) [Isradipine] was tested. Which relative cell viability did it give?
**A.** Its relative cell viability is 1.019 ± 0.003.

**Q.** With `CCOC(=O)Nc1ccc(NCc2ccc(F)cc2)nc1N` [Flupirtine maleate] as the compound, how does the relative cell viability read?
**A.** The relative cell viability was 1.22 ± 0.057.

**Q.** `O=C(O)CCCC[C@@H]1SC[C@@H]2NC(=O)N[C@@H]21` [Biotin (Vitamin B7)] was tested. Which relative cell viability did it give?
**A.** The relative cell viability was 0.999 ± 0.036.

**Q.** With `O=C(/C=C/N1C[C@H]2C[C@@H]1CN2c1ccccn1)c1ccccc1O` as the compound, how does the relative cell viability read?
**A.** The relative cell viability was 1.06 ± 0.02.

**Q.** Which relative cell viability does the source give for `CC(C)C(=O)Nc1ccc([N+](=O)[O-])c(C(F)(F)F)c1` [Flutamide] here?
**A.** The relative cell viability was 0.874 ± 0.037.

**Q.** For `Cn1cnc([N+](=O)[O-])c1Sc1ncnc2[nH]cnc12` [Azathioprine], which relative cell viability is on record?
**A.** The relative cell viability was 1.01 ± 0.12.

**Q.** With `CC(=O)Oc1cc2c(s1)CCN(C(C(=O)C1CC1)c1ccccc1F)C2` (centres undefined) [Prasugrel] as the compound, how does the relative cell viability read?
**A.** The relative cell viability was 1.139 ± 0.0097.

**Q.** With `CN(C)[C@@H]1C(=O)C(C(N)=O)=C(O)[C@@]2(O)C(=O)C3=C(O)c4c(O)ccc(Cl)c4[C@@H](O)[C@H]3C[C@@H]12` [Demeclocycline HCl] as the compound, how does the relative cell viability read?
**A.** Its relative cell viability is 1.24 ± 0.11.

**Q.** With `CC1(C)CCC2=C(O1)c1ccccc1C(=O)C2=O` [Beta-Lapachone] as the compound, how does the relative cell viability read?
**A.** The relative cell viability was 1.03 ± 0.022.

**Q.** `CC(=O)OCC[N+](C)(C)C` [Acetylcholine Chloride] was tested. Which relative cell viability did it give?
**A.** The relative cell viability was 1 ± 0.025.

**Q.** Which relative cell viability does the source give for `S=C(NCc1ccc2c(c1)OCO2)N1CCN(c2ncnc3c2oc2ccccc23)CC1` [Amuvatinib (MP-470)] here?
**A.** The relative cell viability was 1.06 ± 0.18.

**Q.** How did the relative cell viability turn out when `CC(C)(O)C1CCC(C)(C2C(O)CC3(C)C4CC(OC5OC(CO)C(O)C(O)C5O)C5C(C)(C)C(OC6OCC(O)C(O)C6O)CCC56CC46CCC23C)O1` (centres undefined) [Astragaloside A] was run?
**A.** Its relative cell viability is 0.916 ± 0.18.

**Q.** `OCCN1C[C@H](O)[C@@H](O)[C@H](O)[C@H]1CO` [Miglitol] was tested. Which relative cell viability did it give?
**A.** The relative cell viability was 1.16 ± 0.064.

**Q.** How did the relative cell viability turn out when `COc1cc(/C=C/C(=O)CC(=O)/C=C/c2ccc(O)c(OC)c2)ccc1O` [Curcumin] was run?
**A.** The relative cell viability was 0.893 ± 0.054.

**Q.** Which relative cell viability does the source give for `O=C(O)CSCC(=O)NC1CCSC1=O` (centres undefined) [Erdosteine] here?
**A.** Its relative cell viability is 0.991 ± 0.11.

**Q.** Which relative cell viability does the source give for `Cc1cc2c(F)c(Oc3ncnn4cc(OC[C@@H](C)O)c(C)c34)ccc2[nH]1` here?
**A.** The relative cell viability was 0.948 ± 0.065.

**Q.** Which relative cell viability does the source give for `Nc1nc(O)c2ncn(CCC(CO)CO)c2n1` [Penciclovir] here?
**A.** The relative cell viability was 1.06 ± 0.11.

**Q.** For `Fc1ccc([C@@H]2CCNC[C@H]2COc2ccc3c(c2)OCO3)cc1` [Paroxetine HCl], which relative cell viability is on record?
**A.** The relative cell viability was 0.9899 ± 0.0077.

**Q.** `CN(C/C=C/C#CC(C)(C)C)Cc1cccc2ccccc12` [Terbinafine HCl] was tested. Which relative cell viability did it give?
**A.** Its relative cell viability is 1.09 ± 0.032.

**Q.** Which relative cell viability does the source give for `CN(C/C=C/C#CC(C)(C)C)Cc1cccc2ccccc12` [Terbinafine] here?
**A.** The relative cell viability was 1.14 ± 0.02.

**Q.** `CN1CCN(c2ccc(OC(F)(F)F)c(Nc3ncc4c(n3)-c3c(c(C(N)=O)nn3CCO)CC4)c2)CC1` was tested. Which relative cell viability did it give?
**A.** The relative cell viability was 0.887 ± 0.031.

**Q.** With `CCCC(=O)OCOC(=O)C1=C(C)NC(C)=C(C(=O)OC)C1c1cccc(Cl)c1Cl` (centres undefined) [Clevidipine Butyrate] as the compound, how does the relative cell viability read?
**A.** Its relative cell viability is 0.897 ± 0.12.

**Q.** How did the relative cell viability turn out when `C[C@H]1COc2c(N3CCN(C)CC3)c(F)cc3c(=O)c(C(=O)O)cn1c23` [Levofloxacin] was run?
**A.** Its relative cell viability is 1.03 ± 0.032.

**Q.** With `NC(CO)C(=O)NNCc1ccc(O)c(O)c1O` (centres undefined) [Benserazide HCl] as the compound, how does the relative cell viability read?
**A.** The relative cell viability was 0.799 ± 0.028.

**Q.** How did the relative cell viability turn out when `O=c1[nH]cnc2[nH]ncc12` [Allopurinol Sodium] was run?
**A.** The relative cell viability was 0.9331 ± 0.0065.

**Q.** With `CN1CCN(C2CCN(C(=O)Nc3cc(Oc4ccc(NC(=O)C5(C(=O)Nc6ccc(F)cc6)CC5)c(F)c4)ccn3)CC2)CC1` [Golvatinib (E7050)] as the compound, how does the relative cell viability read?
**A.** The relative cell viability was 1.21 ± 0.05.

**Q.** With `C[N+](C)(C)CCO.[Cl-]` [Choline Chloride] as the compound, how does the relative cell viability read?
**A.** Its relative cell viability is 1.1377 ± 4.2e-05.

**Q.** Which relative cell viability does the source give for `CCOC(=O)[C@H](CCc1ccccc1)N[C@@H](C)C(=O)N1Cc2cc(OC)c(OC)cc2C[C@H]1C(=O)O` [Moexipril HCl] here?
**A.** The relative cell viability was 1.03 ± 0.025.

**Q.** Which relative cell viability does the source give for `COC(=O)c1ccc2c(C(=Nc3ccc(N(C)C(=O)CN4CCN(C)CC4)cc3)c3ccccc3)c(O)[nH]c2c1` [Nintedanib (BIBF 1120)] here?
**A.** Its relative cell viability is 0.998 ± 0.014.

**Q.** `Cn1cc(-c2ccc3nnc(Sc4ccc5ncccc5c4)n3n2)cn1` was tested. Which relative cell viability did it give?
**A.** Its relative cell viability is 1.09 ± 0.14.

**Q.** `Clc1ccc(Nc2nnc(Cc3ccncc3)c3ccccc23)cc1` [Vatalanib (PTK787) 2HCl] was tested. Which relative cell viability did it give?
**A.** Its relative cell viability is 1.16 ± 0.022.

**Q.** `Cc1cc(O)c2c(c1)C(=O)c1cc(O)cc(O)c1C2=O` [Emodin] was tested. Which relative cell viability did it give?
**A.** Its relative cell viability is 0.949 ± 0.07.

**Q.** Which relative cell viability does the source give for `O=C1NC(=O)/C(=C/c2cccc(C(F)(F)F)c2)S1` here?
**A.** The relative cell viability was 1.1918 ± 0.00074.
